Assay results: ChEMBL document CHEMBL1201862, “PubChem BioAssay data set” (2004)
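The compound was tested at five concentrations on cells cultured in 96-well plates, with a 48-hour exposure period. GI50 is the concentration that inhibits growth by half.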 Activity calls are given as the source filed them. Cut-off read from the data, not from the text of the source: active = GI50 up to about 1.1 µM and inactive = higher.

tested on: NCI-H322M; experiment: inhibition of tumour cell growth, NCI panel, 48 h

Compound | GI50
O=C(/C=C/c1ccc(OCCCOc2ccc(/C=C/C(=O)c3ccccc3)cc2)cc1)c1ccccc1 | inactive: > 100 µM
Cc1ccc(NCC(=O)N2CC(=O)Nc3ccccc32)c(C)c1 | inactive: > 100 µM
COc1cccc(Nc2nc(NNC(=O)Cc3ccccc3)nc(NNC(=O)c3ccncc3)n2)c1 | inactive: > 10 µM
Cc1ccc(-c2c(C#N)c(-c3ccc(Cl)cc3)c(C#N)c(=O)n2NS(=O)(=O)c2ccccc2)cc1 | inactive: 79.8 µM
Cc1cc2nc3c(C#N)c4c(c(Cl)n3c2cc1C)CCC4 | inactive: > 100 µM
COc1ccc2c3c1OC1C(=O)C=CC4(CC2)N(C)CCC314 (stereo not drawn) | inactive: 22.9 µM
Clc1ccc(Cc2nc3ccccc3nc2-c2cccc(Br)c2)cc1 | inactive: 16 µM
CCN(CC)C(=S)SC(=S)N(CC)CC | inactive: 69.3 µM
COC1(CC[C@H](C)COC2OC(CO)C(O)C(O)C2O)O[C@H]2C[C@H]3[C@@H]4CC=C5C[C@@H](OC6OC(CO)C(OC7OC(C)C(O)C(O)C7O)C(O)C6OC6OC(C)C(O)C(O)C6O)CC[C@]5(C)[C@H]4CC[C@]3(C)[C@H]2[C@@H]1C (stereo partly drawn) | inactive: 3.59 µM
O=C(O)CCC(NC(=O)c1ccc(Nc2cnc3cc(C(F)(F)F)ccc3n2)cc1)C(=O)O (stereo not drawn) | inactive: > 100 µM
FC(F)(F)c1ccc(C2=N/S(c3ccccc3)=N\C(c3ccc(C(F)(F)F)cc3)=N/S(c3ccccc3)=N\2)cc1 (stereo not drawn) | inactive: > 100 µM
COC(=O)[C@]1(Cc2ccc3ccccc3c2)CCCCCCN1C(=O)c1ccccc1 | inactive: > 38.2 µM
CC(C)(C)[Si](C)(C)OCC1OC(n2ccc(=O)[nH]c2=O)C(O[Si](C)(C)C(C)(C)C)[C@@]12O[C@H]2C(N)=O (stereo partly drawn) | inactive: 19.1 µM
CCCC(CCN)(CCN)[N+](=O)[O-] | inactive: > 100 µM
Cc1c[n+]2c3ccccc3c3ccccc3c2s1.[O-][Cl+3]([O-])([O-])[O-] | inactive: 9.89 µM
C=CC[C@@]1([C@H](C=C)COCc2ccc(OC)cc2)CC[C@]2(C)OC(C)(C)[C@@H](c3ccccc3)N2C1=S | inactive: > 100 µM
CC(CCOc1c2ccoc2cc2oc(=O)ccc12)C1=CC(=O)C(C)(C)O1 (stereo not drawn) | inactive: > 100 µM
COC(=O)Cc1c(-c2c(CC(=O)OC)c3ccccc3n2C2OC(COC(C)=O)C(OC(C)=O)C(OC(C)=O)C2OC(C)=O)[nH]c2ccccc12 (stereo not drawn) | inactive: > 100 µM
COc1ccccc1C1(c2c(OC)c(=O)c2=O)SCCCS1 | inactive: > 100 µM
CC(=O)Oc1ccc(C)c2c1[C@H]1CC[C@]3(C)[C@@H](OC(C)=O)CC[C@H]3[C@@H]1CC2 | inactive: 17.7 µM
CN(C)CCCOC(=O)C(c1ccccc1)C1(O)CCSCC1 (stereo not drawn) | inactive: > 100 µM
Cn1nc(-c2ccc(S(=O)(=O)N/C(=N/c3ccc(Cl)cc3)NN)s2)cc1C(F)(F)F | inactive: 15.8 µM

Compound | GI50
COc1ccc(C2CCc3c(cnc4nc(N)nc(N)c34)C2)cc1 (stereo not drawn) | inactive: 28.2 µM
CN(c1ccc(Cl)cc1)S(=O)(=O)c1cccc([N+](=O)[O-])c1 | inactive: > 100 µM
COc1cc2c(cc1OC)C(C(CBr)CBr)N(C1CCCC1)CC2 (stereo not drawn) | inactive: > 100 µM
O=c1cc(NNc2cccc(F)c2)[nH]c(=O)[nH]1 | inactive: > 100 µM
COc1cccc2c1C(=O)c1c(O)c3c(c(O)c1C2=O)CC(O)(C(C)=O)CC3O (stereo not drawn) | inactive: 5.83 µM
CC1=CC(=O)c2ccc3c4ccccc4n(C)c3c2C1=O | inactive: 62.2 µM
COC(=O)c1cc2ccc(N)nc2[nH]c1=O | inactive: > 100 µM
CCOC(=O)C(C(=O)OCC)=C1N[C@H](C(=O)OCC)CS1 | inactive: > 100 µM
O=C(/N=C1\SCCN1C(=O)C(C(F)(F)F)C(F)(F)F)C(C(F)(F)F)C(F)(F)F | inactive: > 100 µM
N#CC1(CCCI)CCCC1 | inactive: 13.1 µM
Cc1nc2ccccc2c(=O)n1/N=C(\N=N\c1ccccc1)c1ccccc1Cl | inactive: > 100 µM
CN/C(=N\n1cnnc1)OC | inactive: > 100 µM
CCCCCOP(=O)(OCCCCC)C(NC(C)=O)(C(=O)OCC)C(F)(F)F (stereo not drawn) | inactive: > 100 µM
COC(=O)[C@@H](OC(C)=O)[C@@H](OC(C)=O)c1nnc2ccc(Cl)nn12 | inactive: > 100 µM
COC(OC)C1(c2ccccc2)Oc2ccccc2C1=O (stereo not drawn) | inactive: > 100 µM
NC(Cc1ccc(S(=O)(=O)O)cc1)C(=O)NC(CCCCNC(=O)NCCCCC(NC(=O)C(N)Cc1ccc(S(=O)(=O)O)cc1)C(=O)NC(Cc1ccc(S(=O)(=O)O)cc1)C(=O)O)C(=O)NC(Cc1ccc(S(=O)(=O)O)cc1)C(=O)O (stereo not drawn) | inactive: > 100 µM
CC(C)C1=CC23CCC4C(C)(C(=O)O)CCCC4(C)C2CC1C1C(=O)N(c2ccccc2N2C(=O)C4C5CC6C7(C)CCCC(C)(C(=O)O)C7CCC6(C=C5C(C)C)C4C2=O)C(=O)C13 (stereo not drawn) | inactive: 3.21 µM
C[C@@H]1C2=CC[C@@]3(C)C(CCC3[C@H](C)[C@H]3C[C@@]4(C)O[C@@](c5cccnc5)(O3)OC4(C)C)[C@@H]2C2OC2[C@@]12CCC(=O)O2 (stereo partly drawn) | inactive: 72.9 µM
CC(C)(C)C1CCP(=O)(c2ccccc2)CC1 (stereo not drawn) | inactive: > 100 µM
COc1cc2c(cc1OC)[C@@H](Nc1ccc(F)cc1)C1COC(=O)[C@@H]1C2c1cc(OC)c(O)c(OC)c1 (stereo partly drawn) | inactive: 76 µM
NC(Cc1ccc(B(O)O)cc1)C(=O)NC(CO)CO (stereo not drawn) | inactive: > 100 µM
